In PubChem BioAssay AID588795 (National Center for Advancing Translational Sciences (NCATS), 2011):
The campaign covered roughly 390,000 compounds. About 1,400 (0.36%) were called active. Inconclusive means that the source gave no clear call. Such entries were picked first, then a sample of the others. Calls come from the whole dose curve; as a rule, active = well fitted inhibition curve with a large enough effect; inconclusive = small, poorly fitted or top-dose-only effect; inactive = no such curve, though single readings can be large or run the other way. Potencies of inconclusive entries are doubtful fits and often do not repeat.

target: Flap endonuclease 1 (Homo sapiens) (UniProt P39748); assay: qHTS Assay for the Inhibitors of Human Flap endonuclease 1 (FEN1).; note: nearly all actives have a fitted effect of over 65% in size; conditions: Recombinant FEN1 flap cleavage, fluorescence, 15 min; series mostly up to 114 µM; activity change, negative = inhibition: at the top concentration
Chain of UniProt P39748 (P39748 whole entry, looked up): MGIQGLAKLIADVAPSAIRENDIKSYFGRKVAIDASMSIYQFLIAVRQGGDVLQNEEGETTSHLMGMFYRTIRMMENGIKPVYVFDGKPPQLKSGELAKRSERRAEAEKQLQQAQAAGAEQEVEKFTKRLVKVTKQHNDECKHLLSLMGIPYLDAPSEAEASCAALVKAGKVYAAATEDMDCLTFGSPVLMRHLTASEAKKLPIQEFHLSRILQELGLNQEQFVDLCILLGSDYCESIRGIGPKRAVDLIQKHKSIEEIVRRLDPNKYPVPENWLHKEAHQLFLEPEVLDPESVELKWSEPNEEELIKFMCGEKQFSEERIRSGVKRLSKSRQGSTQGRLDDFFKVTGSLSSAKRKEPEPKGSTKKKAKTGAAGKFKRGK
In short: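 FEN1 at 10 nM preincubated with compounds 15 min at room temperature, then flap DNA substrate added at 50 nM final. Signal read at 0 and 15 min; concentration-response fitted with four-parameter Hill equation.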
% is set by controls: 0 for no effect and ±100 for the full control effect; potency is the fitted concentration of half-maximal effect; tags give direction and shape of the fitted curve.

SMILES	Potency	activity change, negative = inhibition
CC(C)(C)C1CCc2c(sc(NC(=O)CCC(=O)O)c2C(=O)Nc2ccccc2C(F)(F)F)C1 (stereo unspecified)	inconclusive: 56.2 µM [inhibitor, partial curve, poor fit]	
Fc1ccc(CSc2nc3ccccc3[nH]2)cc1		inactive: -4.57%
CCc1ccc(-n2nc(C)c3c(C)cc(=O)n(CC(=O)NCc4ccc(C)cc4)c32)cc1		inactive: -0.479%
O=C(Nc1ccc2nc(-c3ccco3)c(-c3ccco3)nc2c1)N1CCCCCC1	active: 50.1 µM	
Nc1ccc(Br)c2c1C(=O)c1ccccc1C2=O	inconclusive: 39.8 µM [inhibitor, full curve, poor fit]	
Cc1c(N2C(=O)/C(=C\c3ccc(N(C)C)cc3)N(C)C2=S)c(=O)n(-c2ccccc2)n1C	inconclusive: 89.1 µM [inhibitor, partial curve, poor fit]	
Cc1ccc(NC(c2nnc(-c3ccccc3)o2)c2ccccc2F)c([N+](=O)[O-])c1 (stereo unspecified)		inactive: -4%
COc1cccc(OC(=O)c2ccccc2)c1OC(=O)c1ccccc1	inconclusive: 25.1 µM [inhibitor, full curve]	
CCn1c(=O)c2cc(C(=O)NCCCN(C)Cc3ccccc3)sc2c2ccccc21	inconclusive: 56.2 µM [inhibitor, partial curve, poor fit]	
O=C(NCc1ccc(Cl)cc1)c1n[nH]c([N+](=O)[O-])c1Cl		inactive: -3.78%
Cc1ccc(S(=O)(=O)c2nc(-c3ccco3)oc2SCc2ccccc2Cl)cc1	inconclusive: 28.2 µM [inhibitor, partial curve, poor fit]	
Cc1ccc2c(c1)OC(=O)CC2c1ccccc1 (stereo unspecified)	inconclusive: 89.1 µM [inhibitor, partial curve, poor fit]	
Cc1cc(C)c2c(N)c(C(=O)Nc3ncc(C)s3)sc2n1	inconclusive: 31.6 µM [inhibitor, partial curve, poor fit]	
O=C(CSc1ncc(CO)n1Cc1ccccc1)Nc1ccc(C(F)(F)F)cc1		inactive: -10.1%
CCCN1C(=O)c2cc(C(=O)Nc3ccccc3OC)ccc2C1Nc1ccccc1OC (stereo unspecified)	inconclusive: 79.4 µM [inhibitor, partial curve, poor fit]	
CCOc1ccc(CN(C)c2nc(-c3cccnc3)nc3ccccc23)cc1OC	inconclusive: 7.08 µM [inhibitor, partial curve, poor fit]	
O=S(=O)([O-])CCC[N+]1(CC#Cc2ccccc2)CCCCC1	inconclusive: 89.1 µM [inhibitor, single point]	
CCOC(=O)C(=O)Nc1c(C(=O)Nc2cccc(F)c2)oc2ccccc12		inactive: 33.6%
CC1=NN(c2ccc(Br)cc2)C(=O)/C1=C/c1cccs1	inconclusive: 50.1 µM [inhibitor, partial curve, poor fit]	
Cc1c([N+](=O)[O-])nnn1-c1cc(Cl)cc(Cl)c1		inactive: -5.8%
CCc1ccccc1Nc1cc(C(=O)NC2CCC(C)CC2)c2ccccc2n1 (stereo unspecified)		inactive: 10.7%
Cc1ccc(NC(=O)COC(=O)CNC(=O)c2cccc([N+](=O)[O-])c2)cc1S(=O)(=O)N1CCCCCC1		inactive: 0.93%

SMILES	Potency	activity change, negative = inhibition
O=C(O)/C(=C\c1ccco1)NC(=O)c1ccc(Br)o1		inactive: -7.6%
COc1ccc(CCN2C(=O)CN(C3CCCCCC3)C(=O)C2c2ccc(Cl)cc2)cc1OC (stereo unspecified)		inactive: -16.4%
CC1CC(C)(C)N2C(=O)C3(Nc4ccccc4S3)c3cccc1c32 (stereo unspecified)	inconclusive: 79.4 µM [inhibitor, partial curve, poor fit]	
CC1(C)C[C@H](O)[C@@]23C[C@@H](OC2=O)[C@]2(C)C(=CCC4[C@@]5(C)CC[C@H](O)C(C)(C)C5CC[C@]42C)[C@@H]3C1 (stereo partly specified)	inconclusive: 25.1 µM [inhibitor, partial curve, poor fit]	
Nc1ncc(N=Nc2cc(C(=O)O)ccc2Cl)s1	inconclusive: 79.4 µM [inhibitor, single point]	
N#Cc1cc(C(=O)c2ccccc2O)cn(-c2nccs2)c1=O		inactive: -18%
Cc1nc(N=C(N)N)nc2ccccc12	inconclusive: 79.4 µM [inhibitor, partial curve]	
Cc1cccc2cc(C(c3nnnn3C(C)(C)C)N(Cc3ccco3)CC3CCCO3)c(=O)[nH]c12 (stereo unspecified)	inconclusive: 50.1 µM [inhibitor, partial curve]	
CCCCCCNC(=O)CC(c1ccccc1)c1cc(Br)ccc1O (stereo unspecified)	inconclusive: 50.1 µM [inhibitor, partial curve, poor fit]	
COc1ccc(-c2nc3ccccc3s2)cc1NC(=O)c1cccc(F)c1	inconclusive: 79.4 µM [inhibitor, partial curve, poor fit]	
Nc1cc(N)[nH]c(=S)n1	inconclusive: 35.5 µM [inhibitor, full curve]	
CCN1CCCC1CNC(=O)C1CCCN(S(=O)(=O)c2cccc3nsnc23)C1 (stereo unspecified)		inactive: 3.35%
NN=C1C(=O)c2cccc3cccc1c23	inconclusive: 35.5 µM [inhibitor, partial curve, poor fit]	
CCOC(=O)Cc1nnc(NC(=O)COc2ccc(C)cc2)s1	inconclusive: 50.1 µM [inhibitor, partial curve]	
CN(C)c1ccc(-c2nc3cnccn3c2Nc2ccc3c(c2)OCCO3)cc1	inconclusive: 89.1 µM [inhibitor, partial curve, poor fit]	
COc1ccc2nc(C)cc(N/N=C/c3ccc(F)cc3)c2c1	inconclusive: 89.1 µM [inhibitor, single point]	
Cc1cc(C)c(C(=O)COC(=O)C2CCN(c3ccc(C(F)(F)F)cn3)CC2)c(C)c1	inconclusive: 3.55 µM [inhibitor, partial curve, poor fit]	
C=CCn1c(SCc2cc(=O)n3ccsc3n2)nc2cc(Cl)ccc2c1=O	inconclusive: 14.1 µM [inhibitor, partial curve, poor fit]	
COc1cc(/C=C2/C(=N)N3C(c4ccccc4)=CSC3=NC2=O)ccc1OCC(=O)O	inconclusive: 79.4 µM [inhibitor, partial curve, poor fit]	
COc1ccc(/C=N/NC(=O)c2cccc(NC(=O)c3ccccc3Cl)c2)cc1OC	inconclusive: 35.5 µM [inhibitor, partial curve, poor fit]	
CN1C(=O)C(=C2CCCCCC2)SC1=S		inactive: 4.4%
CCc1ccc(NC(=O)CN2C(C(=O)OC)=C(c3ccccc3)c3ccccc3S2(=O)=O)cc1		inactive: -23.1%

SMILES	Potency	activity change, negative = inhibition
COC(=O)Nc1ccc(S(=O)(=O)NNC(=O)c2c(O)c3ccccc3n(C)c2=O)cc1	inconclusive: 44.7 µM [inhibitor, partial curve, poor fit]	
CCCCCCNC(=O)N1C/C=C\C(c2ccc(OC)cc2)N(Cc2ccc(F)cc2)C(=O)C1 (stereo unspecified)	inconclusive: 56.2 µM [inhibitor, partial curve, poor fit]	
Cc1cc(C)c2c(=O)n(CC(=O)Nc3cccc(Cl)c3C)sc2n1	inconclusive: 89.1 µM [inhibitor, single point]	
CN1CCN(C(=O)/C(=C/c2cn(C)c3ccccc23)NC(=O)c2ccccc2)CC1		inactive: -13.2%
CC(=O)c1ccc(S(=O)(=O)Nc2ccc(-n3cnnn3)cc2)cc1		inactive: 5.9%
CC[n+]1c(C=C2C=C(C)OC(C)=C2)sc2ccccc21	inconclusive: 35.5 µM [inhibitor, partial curve, poor fit]	
CC/C(=C/c1ccccc1)c1cccc2[nH]c3c(OC)cccc3c12	inconclusive: 39.8 µM [inhibitor, partial curve, poor fit]	
Nc1ccc(/C=C/c2cccc3cccnc23)cc1		inactive: 0%
Clc1ccccc1-c1nnc(SCc2nc(-c3ccccc3)no2)n1-c1ccccc1		inactive: 0.882%
CCOC(=O)c1ccc(NC(=O)c2nc[nH]c2C(=O)N[C@@H](CCCCNC(=O)OC(C)(C)C)C(=O)OC(C)(C)C)cc1	inconclusive: 10 µM [inhibitor, partial curve, poor fit]	
Cc1ccc(CNC(=O)c2c[nH]n3c(=O)c(Cc4ccc(F)cc4Cl)c(C)nc23)cc1	inconclusive: 25.1 µM [inhibitor, partial curve, poor fit]	
COc1cc(/C=C2\SC(N)=NC2=O)ccc1OCC(=O)Nc1ccccc1C	inconclusive: 89.1 µM [inhibitor, partial curve, poor fit]	
O=C(Nc1nc(-c2ccco2)c(-c2ccco2)s1)C1CC(=O)N(c2ccc3c(c2)OCCO3)C1 (stereo unspecified)	inconclusive: 63.1 µM [inhibitor, single point]	
COCCN(C(=O)c1cc(-c2ccco2)nc2ccccc12)c1c(N)n(Cc2ccccc2)c(=O)[nH]c1=O	inconclusive: 35.5 µM [inhibitor, single point]	
O=C(Cc1ccccc1)c1ccc(O)cc1		inactive: -0.154%
CC(=O)c1ccc(NC(=O)CSc2nnc(Cn3cnc4ccccc43)o2)cc1		inactive: 8.59%
CC(/C=C1\SC(=S)N(NC(=O)c2ccc(C)cc2)C1=O)=C\c1ccccc1		inactive: -5.87%
COC/C=C/C1=CC2=CC(=O)C(C)(OC(=O)C3CCCC3)C(=O)C2=CO1 (stereo unspecified)	active: 39.8 µM	
CN(Cc1ccccc1)C(=O)COc1ccc(N(C)S(=O)(=O)c2ccc(F)cc2)cc1	inconclusive: 100 µM [inhibitor, partial curve, poor fit]	
COc1ccc(CNC(=O)c2cc3oc4ccccc4c3n2C)cc1OC	inconclusive: 79.4 µM [inhibitor, partial curve, poor fit]	
COc1ccc2c(C)cc(N3CCN(Cc4ccccc4)CC3)nc2c1	inconclusive: 35.5 µM [inhibitor, partial curve, poor fit]	
COc1cc2ccc(=O)oc2c(O)c1OCC=C(C)C	inconclusive: 44.7 µM [inhibitor, partial curve]	
